This note sets out measurements from patent US20250243267A1, “COMBINATION OF A GREMLIN-1 ANTAGONIST WITH A CYTIDINE ANALOGUE OR DEOXYCYTIDINE ANALOGUE” (UCB BIOPHARMA SRL, priority 2022, published 2025).

The test system of this series is LSL-KrasG12D/+; LSL-Trp53R172H/+; Pdx1-Cre (KPC) mouse model of pancreatic cancer. In words: Survival of KPC mice with pancreatic cancer from start of treatment (Kaplan-Meier, Log-Rank). Type of series: in vivo. The source says:
• Test antibody and drug Anti-gremlin-1 antibody-Ab7326 mlgG1-APP.4405.IgG.mFc-Lot number-PB 4682 • Vehicle-Phosphate Buffered Saline pH 7.4 (provided by the Beatson Institute) • Gemcitabine-(provided by the Beatson Institute, purchased from LC Labs, Woburn, MA, USA) in Phosphate Buffered Saline pH 7.4. • Genetically Modified Mice • LSL-Kras^G12D/+; Trp53^R172H/+; Pdx1-Cre (KPC) mice have been described previously (Hingorani et al., 2005). Mice were generated by crossing mice bearing Pdx1-Cre, and conditional LSL-KrasG12D or LSL-Trp53R172H alleles (strains 01XJ6 and 01XL9, Mouse Models of Human Cancer Consortium [MMHCC], NCI-Frederick, Frederick, MD, USA). Mice on a mixed background were bred in-house at the CRUK Beatson Institute and maintained in conventional caging with environmental enrichment, access to standard chow and water ad libitum. Genotyping was performed by Transnetyx (Cordoba, TN, USA). Mice of both sexes were recruited onto study. All animal experiments were performed under a UK Home Office licence and approved by the University of Glasgow Animal Welfare and Ethical Review Board.
Mice were monitored 3 times weekly until a diagnosis of pancreatic cancer was made by abdominal palpation and confirmed by ultrasound imaging. […] Mice were monitored daily and sacrificed when reaching ethical endpoint (symptoms include abdominal distension, cachexia, intermittent hunching or reduced mobility, piloerection, mild diarrhoea, anaemia). […]
Next, the efficacy of gremlin-1 inhibition as a potential therapeutic approach for pancreatic cancer was tested in the KPC model. […] A cohort of KPC mice was established and mice were monitored until they developed pancreatic cancer detectable by palpation.
Mice were monitored at least weekly by palpation until pancreatic tumours were detectable. […] Mice remained on study and were closely monitored until ethical endpoint was reached, at which time they were sacrificed as per institutional guidelines.

Several values for one entry are separate records, joined by “and”; a condition that tells them apart may be missing. Equal entries are not always repeated.

B1: Ab7326 mlgG1: Anti-gremlin-1 antibody Ab7326 in mouse IgG1 format, Lot number PB 4682; allosteric inhibitory antibody (antibody)
heavy: QVQLVESGAEVKKPGATVKISCKVSGYTFTDYYMHWVQQAPGKGLEWMGLVDPEDGETIYAEKFQGRVTITADTSTDTAYMELSSLRSEDTAVYYCATDARGSGSYYPNHFDYWGQGTLVTVSSASTKGPSVFPLAPSSKSTSGGTAALGCLVKDYFPEPVTVSWNSGALTSGVHTFPAVLQSSGLYSLSSVVTVPSSSLGTQTYICNVNHKPSNTKVDKKVEPKSC
light: DIVMTQSPDSLAVSLGERATINCKSSQSVLYSSNNKNYLAWYQQKPGQPPKLLIYWASTRESGVPDRFSGSGSGTDFTLTINSLQAEDVAVYFCQQYYDTPTFGQGTRLEIKRTVAAPSVFIFPPSDEQLKSGTASVVCLLNNFYPREAKVQWKVDNALQSGNSQESVTEQDSKDSTYSLSSTLTLSKADYEKHKVYACEVTHQGLSSPVTKSFNRGEC
As for B1, the “Median (days) survival” value (KPC mice, survival from start of treatment, dosing twice weekly (Ab7326 mlgG1 30 mg/kg s.c.; gemcitabine 100 mg/kg i.p.)) is recorded as 26 days. For the setting “as a single agent and in combination with gemcitabine”, the “safety in KPC mice” value is “can be given safely”. Besides, the “Days on Rx (individual mice)” value (one value per KPC mouse, * denotes smaller than average tumour at start of treatment) is 24 days and 13 days and 9 days and 26 days and 85 days and 12 days and 33 days.
